Measurements taken from US12290565B2, “Methods of using anti-PSGL-1 antibodies in combination with JAK inhibitors to treat T-cell mediated inflammatory diseases or cancers” (AltruBio Inc., priority 2021, dated 2025).

Tested on: activated T cells
Experiment: Fixed-ratio combination cytotoxicity assay, ruxolitinib + 15A7H (Chou-Talalay, Calcusyn)
Type: cell-based, human
Settings: RUXO + 15A7H; for DRI15A7H (Dose-Reduction Index): EC50 level
Description: T cell stimulation was achieved through Phytohemagglutinin-L (PHA) treatment prior to the apoptosis assays described below. In brief, human blood samples used in the study were obtained from heathy human donors. […] The buffy coat layer containing mononuclear cells was collected and washed 3 times with phosphate-buffered saline (PBS) to minimize platelet contamination.
Activated T cells were seeded in 96-well plates at 1-1.5×10^5 cells/mL and were treated with ruxolitinib and antibody 15A7H alone, or in combination at fixed concentration ratios. For the combination of ruxolitinib and antibody 15A7H, fixed ratios at 3.3:1 and 1.1:1 were tested on T cells from four donors. In addition, a fixed ratio of ruxolitinib and antibody 15A7H of 0.37:1 was tested on T cells from two donors.
Cell apoptosis was measured using an Annexin-V FITC Apoptosis Detection Kit (Strong Biotech, AVK250), according to the manufacturer's instructions.
Results were expressed as apoptosis fractions (fraction affected), based on the measured fluorescence counts of treated samples, compared with that of untreated controls. Seven diagonals representing various dose-effect curves with fixed drug ratios were used to measure the combination indexes (CI) for each of the combinations with Calcusyn software (Biosoft). The combinatorial effect was defined as “synergistic”, “additive” or “antagonistic” when CI was <1, 1 and >1, respectively.

B1: 15A7H: anti-PSGL-1 antibody, IgG4 hinge S228P; light chain SEQ ID NO:1, heavy chain SEQ ID NO:2 (antibody)
heavy: EVQLVESGGGLVQPGGSLRLSCAASGFTFSSFGMHWVRQAPGKGLEWVAYINGGSSTIFYANAVKGRFTISRDNAKNTLYLQMNSLRAEDTAVYYCARYASYGGGAMDYWGQGTLVTVSSASTKGPSVFPLAPCSRSTSESTAALGCLVKDYFPEPVTVSWNSGALTSGVHTFPAVLQSSGLYSLSSVVTVPSSSLGTKTYTCNVDHKPSNTKVDKRV[human IgG4 Fc with S228P (EU numbers) omitted here]
light: DIQMTQSPSSLSASVGDRVTITCRSSQSIVHNDGNTYFEWYQQKPGKAPKLLIYKVSNRFSGVPSRFSGSGSGTHFTLTISSLQPEDFATYYCFQGSYVPLTFGQGTKVEIKRTVAAPSVFIFPPSDEQLKSGTASVVCLLNNFYPREAKVQWKVDNALQSGNSQESVTEQDSKDSTYSLSSTLTLSKADYEKHKVYACEVTHQGLSSPVTKSFNRGEC
- EC5015A7H Combination Treatment (donor N084, ratio 1.1:1): 0.1810 µg/mL
- DRI15A7H (Dose-Reduction Index) (donor N084, ratio 1.1:1): 1.8093
- EC5015A7H Combination Treatment (donor N084, ratio 3.3:1): 0.1118 µg/mL
- DRI15A7H (Dose-Reduction Index) (donor N084, ratio 3.3:1): 2.9286
- EC5015A7H Combination Treatment (donor N089, ratio 1.1:1): 0.3544 µg/mL
- DRI15A7H (Dose-Reduction Index) (donor N089, ratio 1.1:1): 2.3009
- EC5015A7H Combination Treatment (donor N089, ratio 3.3:1): 0.1436 µg/mL
- DRI15A7H (Dose-Reduction Index) (donor N089, ratio 3.3:1): 6.0249
- EC5015A7H Combination Treatment (donor N102, ratio 0.37:1): 0.4450 µg/mL
- DRI15A7H (Dose-Reduction Index) (donor N102, ratio 0.37:1): 2.1549
- EC5015A7H Combination Treatment (donor N102, ratio 1.1:1): 0.4494 µg/mL
- DRI15A7H (Dose-Reduction Index) (donor N102, ratio 1.1:1): 2.1339
- EC5015A7H Combination Treatment (donor N102, ratio 3.3:1): 0.3456 µg/mL
- DRI15A7H (Dose-Reduction Index) (donor N102, ratio 3.3:1): 2.7749
- EC5015A7H Combination Treatment (donor N103, ratio 0.37:1): 0.7192 µg/mL
- DRI15A7H (Dose-Reduction Index) (donor N103, ratio 0.37:1): 1.9508
- EC5015A7H Combination Treatment (donor N103, ratio 1.1:1): 0.4984 µg/mL
- DRI15A7H (Dose-Reduction Index) (donor N103, ratio 1.1:1): 2.8153
- EC5015A7H Combination Treatment (donor N103, ratio 3.3:1): 0.3026 µg/mL
- DRI15A7H (Dose-Reduction Index) (donor N103, ratio 3.3:1): 4.6368
